Data reported in the supplement of paper PMC4967469.
The IC50 comes from the fitted curve, where viability falls to half of the control; fits outside the tested doses are given as limits. AUC is the area under the same curve over the 256-fold range up to the top dose, as a fraction: 1 means no effect, lower means more sensitive. For some of these results: A top dose marked as inferred is not printed in the source and was worked back from the curve model. For some of these results: Drugs with an entry number were screened twice under separate entries, and the two screens often disagree.

How the values were obtained:
Test in all cases: Viability of human cancer cell lines after 72 h of drug (GDSC screen)
CUDC-101 = compound: C#Cc1cccc(Nc2ncnc3cc(OC)c(OCCCCCCC(=O)NO)cc23)c1 [CUDC-101]; conditions: top dose 5.12 µM; top dose inferred
Protocol: (§1)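 Human cancer cell lines in 384-well plates, medium with 10% serum, drug for 72 h over a 256-fold dose range (nine 2-fold or five 4-fold steps up to the top dose). Adherent lines were fixed and stained with the nucleic acid dye Syto60, suspension lines read with resazurin; signal relative to control wells, capped at 0 and 100%. One two-parameter sigmoid per drug and line, fitted in a mixed model over all curves with the slope shared within a line.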

AC220 = compound: CC(C)(C)c1cc(NC(=O)Nc2ccc(-c3cn4c(n3)sc3cc(OCCN5CCOCC5)ccc34)cc2)no1 [AC220]; conditions: top dose 1.024 µM; top dose inferred
Protocol: as §1

RDEA119 = compound: COc1cc(F)c(F)c(Nc2ccc(I)cc2F)c1NS(=O)(=O)C1(C[C@H](O)CO)CC1 [RDEA119]; conditions: top dose 5 µM, top dose inferred
Protocol: as §1

JNK-9L = compound: Fc1cc(-c2ccnc(Nc3ccc(-n4cnc(N5CCOCC5)n4)cc3)n2)cc(N2CCOCC2)c1 [JNK-9L]; conditions: top dose 5.12 µM; top dose inferred
Protocol: as §1

OSU-03012 = compound: NCC(=O)Nc1ccc(-n2nc(C(F)(F)F)cc2-c2ccc3c(ccc4ccccc43)c2)cc1 [OSU-03012]; conditions: top dose 16 µM; top dose inferred
Protocol: as §1

5-Fluorouracil = compound: O=c1[nH]cc(F)c(=O)[nH]1 [5-Fluorouracil]; conditions: top dose 32 µM; top dose inferred
Protocol: as §1

QS11 = compound: OC[C@H](Cc1ccccc1)Nc1nc(Oc2ccc3c(c2)CCC3)nc2c1ncn2Cc1ccc(-c2ccccc2)cc1 [QS11]; conditions: top dose 10.24 µM
Protocol: as §1

Cell Line	AUC (CUDC-101)	IC50 (CUDC-101)	AUC (AC220)	IC50 (AC220)	AUC (RDEA119; screen: GDSC drug entry 1014)	IC50 (RDEA119; screen: GDSC drug entry 1014)	AUC (RDEA119; screen: GDSC drug entry 1526)	IC50 (RDEA119; screen: GDSC drug entry 1526)	AUC (JNK-9L)	IC50 (JNK-9L)	AUC (OSU-03012)	IC50 (OSU-03012)	AUC (5-Fluorouracil)	IC50 (5-Fluorouracil)	AUC (QS11)	IC50 (QS11)
IMR-5 (neuroblastoma, adherent)	0.581	513 nM	0.973	> 1020 nM	0.992	> 5000 nM	0.973	> 5000 nM	0.588	536 nM	0.753	4610 nM	0.424	1290 nM	0.786	3690 nM
IPC-298 (melanoma, adherent)	0.515	352 nM	0.984	> 1020 nM	0.223	49.6 nM	0.244	57.9 nM	0.657	867 nM	0.868	14200 nM	0.531	2430 nM	0.987	> 10200 nM
IST-MEL1 (melanoma, adherent)	0.578	544 nM	0.977	> 1020 nM	0.73	1630 nM	0.761	2100 nM	0.666	1020 nM	0.686	3690 nM	0.855	> 32000 nM	0.923	> 10200 nM
IST-SL1 (small cell lung carcinoma, semi-adherent)	0.227	50 nM	0.861	912 nM	0.962	> 5000 nM	0.951	> 5000 nM	0.659	900 nM	0.843	11800 nM	0.75	10700 nM	0.95	> 10200 nM
IST-SL2 (small cell lung carcinoma, suspension)	0.986	> 5120 nM	0.974	> 1020 nM	0.96	> 5000 nM	0.986	> 5000 nM	0.509	340 nM	0.758	5500 nM	0.984	> 32000 nM	0.881	> 10200 nM
J82 (bladder, adherent)	0.89	> 5120 nM	0.988	> 1020 nM			0.964	> 5000 nM	0.539	408 nM	0.519	1130 nM	0.948	> 32000 nM	0.845	7320 nM
JAR (urogenital system, adherent)	0.615	658 nM	0.988	> 1020 nM	0.973	> 5000 nM	0.986	> 5000 nM	0.854	3930 nM	0.979	> 16000 nM	0.942	> 32000 nM	0.988	> 10200 nM
JEG-3 (urogenital system, adherent)	0.99	> 5120 nM	0.991	> 1020 nM	0.982	> 5000 nM	0.989	> 5000 nM	0.558	454 nM	0.842	9630 nM	0.991	> 32000 nM	0.964	> 10200 nM
JHH-1 (liver, adherent)	0.114	< 20 nM	0.985	> 1020 nM	0.507	327 nM	0.563	473 nM	0.678	1050 nM	0.688	3540 nM	0.8	17100 nM	0.957	> 10200 nM
JHH-2 (liver, adherent)	0.551	447 nM	0.986	> 1020 nM	0.803	2720 nM	0.843	3950 nM	0.961	> 5120 nM	0.852	13800 nM	0.798	16600 nM	0.985	> 10200 nM
JHH-4 (liver, adherent)	0.577	518 nM	0.933	> 1020 nM	0.776	1990 nM	0.851	3790 nM	0.727	1410 nM	0.742	4900 nM	0.907	> 32000 nM	0.864	8920 nM
JHH-6 (liver, adherent)	0.778	2120 nM	0.987	> 1020 nM			0.921	> 5000 nM	0.588	558 nM	0.743	5050 nM	0.964	> 32000 nM	0.971	> 10200 nM
JHH-7 (liver, adherent)	0.673	936 nM	0.989	> 1020 nM	0.791	2090 nM	0.771	1800 nM	0.621	675 nM	0.53	1200 nM	0.929	> 32000 nM	0.784	4070 nM
JHU-011 (head and neck, adherent)	0.524	371 nM	0.986	> 1020 nM	0.534	386 nM	0.874	4700 nM	0.478	280 nM	0.611	2010 nM	0.395	1030 nM	0.867	9000 nM
JHU-022 (head and neck, adherent)	0.666	1050 nM	0.982	> 1020 nM	0.624	752 nM	0.533	395 nM	0.799	3240 nM	0.801	10300 nM	0.978	> 32000 nM	0.981	> 10200 nM
JIMT-1 (breast, adherent)	0.786	2400 nM	0.985	> 1020 nM	0.871	> 5000 nM	0.839	3810 nM	0.57	505 nM	0.764	6230 nM	0.927	> 32000 nM	0.912	> 10200 nM
JJN-3 (haematopoietic neoplasm, suspension)	0.371	151 nM	0.986	> 1020 nM	0.726	1190 nM	0.975	> 5000 nM	0.529	378 nM	0.75	4420 nM	0.873	21500 nM	0.978	> 10200 nM
